Measurements reported in the supplement of paper PMC3334620.
The full ranking holds about 33,000 sequences; the median of “E-score (-0.5 to 0.5)” is about -0.032, and the highest 2% start at about 0.36. The list shows a part of the results.

Target: T1, Sko1 (UniProt Q02100)
T1 sequence: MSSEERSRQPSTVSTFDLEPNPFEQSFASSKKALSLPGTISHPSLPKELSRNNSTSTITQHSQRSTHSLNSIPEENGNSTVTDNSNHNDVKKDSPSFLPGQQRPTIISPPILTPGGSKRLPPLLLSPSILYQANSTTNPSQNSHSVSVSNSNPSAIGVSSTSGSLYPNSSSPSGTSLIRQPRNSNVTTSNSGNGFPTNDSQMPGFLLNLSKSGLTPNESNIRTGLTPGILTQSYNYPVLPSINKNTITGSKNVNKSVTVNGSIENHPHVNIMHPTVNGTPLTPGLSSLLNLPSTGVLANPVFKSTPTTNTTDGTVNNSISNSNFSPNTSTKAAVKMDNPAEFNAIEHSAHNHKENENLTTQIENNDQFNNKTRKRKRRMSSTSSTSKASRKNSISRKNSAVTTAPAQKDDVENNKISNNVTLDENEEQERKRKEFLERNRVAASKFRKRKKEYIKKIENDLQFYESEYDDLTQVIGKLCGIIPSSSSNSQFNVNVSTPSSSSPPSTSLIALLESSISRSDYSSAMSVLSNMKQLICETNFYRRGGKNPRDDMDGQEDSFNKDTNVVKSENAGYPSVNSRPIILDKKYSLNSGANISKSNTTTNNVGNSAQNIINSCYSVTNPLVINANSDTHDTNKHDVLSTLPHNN
Experiment: PBM E-score (8-mer binding enrichment) (E-score (-0.5 to 0.5)); higher = stronger / more preferred TF binding; most listed sequences are background and not binding sites
Conditions: protein concentration: 200 nM; construct: GST-full length
Procedure, shortened: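 Using PURExpress in vitro transcription/translation, GST-tagged yeast transcription factors were made in full-length or DNA-binding-domain form. These were applied at about 100-200 nM to double-stranded universal all-10-mer Agilent arrays, and bound protein was detected with fluorescent anti-GST. Scans were normalised with masliner before the Universal PBM Analysis Suite assigned E-scores to ungapped eight-base words pooled with their reverse complements.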

Row | Sequence | PBM E-score
1 | GCGTTTGA | -0.00543
2 | AGCATATC | -0.0137
3 | TAACCATA | 0.107
4 | AATCTAAC | 0.124
5 | CTGCCATA | -0.0751
6 | AGCGCTAC | -0.0646
7 | AAAGAGGG | -0.0821
8 | GTAGATGA | 0.16
9 | GGCGAAAC | -0.191
10 | TGGATCCA | 0.0102
11 | AATCTTAG | -0.0134
12 | AGTGTTAT | 0.0725
13 | ATTTGCGC | -0.0334
14 | GATCCCAC | -0.0209
15 | AAAAGGGT | -0.0508
16 | TCGGATAA | -0.00727
17 | TCTTATAA | 0.0225
18 | ATCGCCGA | -0.0393
19 | AGTCCCCA | -0.281
20 | CGGTCAGA | -0.121
21 | CGCGTAAC | 0.332
22 | CAGCGCTC | -0.238
23 | TCACTCCA | -0.019
24 | ATTAAAGC | 0.0316
25 | CTTCGCGA | -0.165

Row | Sequence | PBM E-score
26 | CGTTATAA | 0.27
27 | TCAGGTAA | -0.0329
28 | AAATGGAC | 0.114
29 | AGCAGTTC | 0.0374
30 | AGGCCATC | -0.0882
31 | TACGGGGA | -0.0747
32 | ATCAGCCA | -0.214
33 | AGACTGTG | -0.0493
34 | CTAATGTC | 0.0291
35 | ATATCCGC | -0.031
36 | CAAAAAGG | -0.113
37 | AGTTGTTC | 0.0782
38 | GTACGGAA | -0.00063
39 | ATATCGGA | -0.0255
40 | CAGCCTGG | -0.188
41 | CTCCTACC | -0.19
42 | TACCCGTA | -0.127
43 | CTCCATTC | -0.169
44 | CACAGTAC | 0.019
45 | CTACGGTC | -0.157
46 | AAATCATT | 0.171
47 | CCCTTTTC | -0.124
48 | CTCGGGGC | -0.304
49 | AGAATCCC | -0.0186
50 | ATTGCTCC | -0.24

Row | Sequence | PBM E-score
51 | CACAACAC | 0.0806
52 | CAGTCCGG | -0.347
53 | CATAGGCG | -0.169
54 | TACACCTA | 0.0535
55 | GTATAGCA | 0.264
56 | CCTTCCAA | -0.11
57 | GGGCAAAA | -0.143
58 | GCTAGAGC | -0.0879
59 | GAACGCTA | -0.0985
60 | GCAGGGAC | -0.175
61 | ACGGGCAT | -0.202
62 | CCGGTGCC | -0.189
63 | AACCCGGA | -0.248
64 | ATGCCATC | 0.0604
65 | ACCTAGCC | -0.21
66 | AGGCTGTG | -0.209
67 | GTTCAGTA | 0.163
68 | ACGCGGTA | 0.0969
69 | GCATATAC | 0.0862
70 | AACAGACC | 0.0572
71 | CAACTCTG | -0.161
72 | CTCGGATC | -0.0845
73 | CGTTATCC | 0.173
74 | CCTGACCG | -0.294
75 | AAAGATTT | 0.0922

Row | Sequence | PBM E-score
76 | CATTCGCC | -0.112
77 | CCCAAAAA | -0.143
78 | TAATCGTA | 0.334
79 | AGAGGATC | -0.159
80 | TCCTGAGA | -0.00979
81 | AAGTAATA | 0.104
82 | CCGCCTAC | 0.00758
83 | ACCTAATG | 0.054
84 | GCACACAC | -0.054
85 | GTCCACAA | 0.0551
86 | CCAAGAAC | -0.126
87 | AGTTCAAT | 0.066
88 | TTAGCTAA | 0.226
89 | ACTACAAA | 0.177
90 | ATTGCGTG | 0.419
91 | ACGATCCG | -0.216
92 | CGGTCCGC | -0.276
93 | ACCACAAG | -0.236
94 | ATGTCGAG | -0.124
95 | GGTCGAGA | -0.223
96 | CACCTACA | -0.02
97 | ATTAGATC | 0.19
98 | GCAAGCTA | 0.0116
99 | AACTGACT | -0.0679
100 | GCGTACAC | 0.213

Row | Sequence | PBM E-score
101 | ATCGGATG | -0.12
102 | CTTGCAGC | -0.128
103 | AACGTAAG | 0.397
104 | GATTCTGA | 0.146
105 | CAATACTG | -0.165
106 | ATCTTTAC | 0.217
107 | ACTCTACT | 0.0326
108 | ACGACGAA | 0.25
109 | AGAGAAGA | 0.0948
110 | CCCCCAGA | -0.311
111 | TTGAAAAA | 0.193
112 | AAAGTCTT | 0.0148
113 | AACTTATG | 0.19
114 | CGTAATTC | 0.435
115 | CACCCAAC | -0.22
116 | ATTGCGTC | 0.414
117 | ACTTGCAG | -0.0878
118 | CTTAACCC | -0.19
119 | ATAAGCTA | 0.194
120 | CGCCAGTC | -0.208
121 | ACCTACTC | -0.00224
122 | AGCCGGCC | -0.246
123 | AAGCTTGA | -0.122
124 | AAGTCAGA | -0.178
125 | CACGGTCA | -0.0828

Row | Sequence | PBM E-score
126 | GCCCAAAC | -0.16
127 | AGTATGTC | 0.213
128 | GAAATATC | 0.0141
129 | AAAGAGAA | 0.078
130 | ACCAACAA | 0.147
131 | CCCTTTCC | -0.252
132 | AGGTAACT | 0.0427
133 | CCTCAAGA | -0.138
134 | ATGGCCAG | -0.0993
135 | AGCGAAAA | -0.00017
136 | TCAACGAA | 0.127
137 | CTTGTTTA | 0.0536
138 | ACTTTCCC | -0.0503
139 | AACGCGGT | -0.0313
140 | CAATCTTA | 0.137
141 | GTATGCCA | -0.0206
142 | ACCAGCGG | -0.224
143 | ACCTTGCA | -0.213
144 | CCGTGATC | -0.255
145 | ACATGGCT | -0.131
146 | ATGGATTA | -0.0995
147 | AGTTGGTG | -0.0352
148 | CCTCATAA | 0.201
149 | CCACCGGA | -0.137
150 | ACAACCAC | 0.077

Row | Sequence | PBM E-score
151 | GCGGCGAC | -0.221
152 | ATCATTGC | 0.191
153 | TGATACCA | 0.141
154 | CTTCGGAC | -0.0397
155 | AGACAAGC | -0.00534
156 | AAACGCTC | -0.0073
157 | CGTAGCAC | 0.295
158 | GAGAGATC | -0.0164
159 | AATTGGGT | 0.12
160 | TCGATGCA | -0.0881
161 | AAATCGAC | 0.0539
162 | ATCGCCCA | -0.261
163 | CTGACGTC | 0.482
164 | AGCCGGCG | -0.133
165 | TCCGTAAA | -0.0256
166 | GTAGAGCA | -0.125
167 | ACACGACA | 0.199
168 | ACAACGAT | 0.0479
169 | CAGGCCGA | -0.182
170 | CCCTCGGA | -0.188
171 | CTTCTCAC | -0.102
172 | CGACCCAG | -0.181
